# According to paper PMC12136788:
# The list shows a part of the results.
# T1: UNK ZnF1-3 (human, UniProt Q9C0B0 31-174)
# T1 sequence: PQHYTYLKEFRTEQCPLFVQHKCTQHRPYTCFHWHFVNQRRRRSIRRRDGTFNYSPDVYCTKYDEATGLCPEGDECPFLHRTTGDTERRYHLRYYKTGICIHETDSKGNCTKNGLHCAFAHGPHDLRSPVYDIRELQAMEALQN
# B1: 43511743_43514969_1551_CDS_ENSMUSG00000038546_ENSMUST00000144326|mouse|control|control (ssRNA)
# RNA: GGGAGUUCUACAGUCCGACGAUCCUCCGGUACAGUCAAGCUGGAUAGCUGGUGUUUACUAUGGCAAUAUGAUUGGUGUGCUUUAUUUGAUAUUACACCAUUGCUACAACUUUCAAAACCAGAAAAAUGUGCAGUGCUGCUUUUCAACAGAGGAUUGAGCAUCA
# B2: chr14:76904430:76904431:+_ENSMUSG00000022010_ENSMUST00000022587|mus_mus|FALSE|FALSE (ssRNA)
# RNA: GGGAGUUCUACAGUCCGACGAUCCCGUGGAAAAAAAAGAGAGAGGGCGGGAGGGAGCAAGCUCCAGCAGCCUGGUUCAAACUAGAUAAAACCGCCUAGCUGUCUGCAGCUCAGGGCGUGAGAACGGUGGUGCUGGCUCGAGUGCAACAGAGGAUUGAGCAUCA
# B3: chr4:144460044:144460045:+_ENSG00000153147_ENST00000283131|hu_mus|hu_hu_hu_mus_False|28_58 (ssRNA)
# RNA: GGGAGUUCUACAGUCCGACGAUCACGGUCCAUAGCCUGAAGAUCAACUUGCGGAUUCCAAUCUGAGUCAUAUAAAAUUACUACAUCAGCAGUUGCAAGAUUGAUGCCAAGACCACCAGCACGUGUGCUUAGCAUAAAUACAAACAACAGAGGAUUGAGCAUCA
# B4: 71486823_71487036_1032_3pUTR_ENSMUSG00000031328_ENSMUST00000144429|mouse|control|control (ssRNA)
# RNA: GGGAGUUCUACAGUCCGACGAUCGACUUGUCCACAUACACCUCAAAGGGGCUCUUGGCAAUAUGUUGGCCAGCAAAGAGCACAGUCACCUUAUGAGUCCCUGUCACUUCAGGGACAUACCAGACAGAGAAAGUACGGUUCUUGCAACAGAGGAUUGAGCAUCA
# B5: chr14:63888807:63888808:-_ENSG00000154001_ENST00000337537|hu_hu|FALSE|FALSE (ssRNA)
# RNA: GGGAGUUCUACAGUCCGACGAUCUUCAUUGCUGUCACUAGGAGGGAGAGUUCUGAAUAUAUUGCAAGAUACCAUUCUAACUACUUCAGGGUAAGUCUGCUCUGUCAAACAGCCUCUGCUUAUUGUAAUGUAGUCCACCAGUUCCAACAGAGGAUUGAGCAUCA
# B6: chr7:141438946:141438947:+_ENSG00000106028_ENST00000265304|hu_mus|hu_hu_hu_mus_True|8_18 (ssRNA)
# RNA: GGGAGUUCUACAGUCCGACGAUCGACGAAAUACCUGUAACACAGGUCUUCGAAACAUGGCUUCUGUUUUUCUUACAACCUAAUCUUUAGGCUUUUCCUAAAGGAAAGAAAGAAAAGGCCCAGCCACGCAGGGGAUCAACUACACAACAGAGGAUUGAGCAUCA
# B7: 71823346_71842746_418_3pUTR_ENSG00000166747_ENST00000299980|human|control|control (ssRNA)
# RNA: GGGAGUUCUACAGUCCGACGAUCCCGGAUCAGCUCCCGCAAUCUGAUGGGGGCUGGCAUCCUCGGCCCGAAACCUCGAAUGAAACCAGCAGCUCCGGGGGCGGCGGCAGCAGUGGCAGCAGGAACCGAACAUCCAAAAUGGCGCAACAGAGGAUUGAGCAUCA
# B8: 104053121_104054612_280_3pUTR_ENSG00000155097_ENST00000518738|human|control|control (ssRNA)
# RNA: GGGAGUUCUACAGUCCGACGAUCAGCCAGUUCAUCUGACAAGCCAACCAAGACAUCCAACGUGCCAACCUUUAAGUCAGGAAUAUUGAACUUGGAAGUGACAGCAAGAUUAUUGUUCUUUGAAGUUGCCGCAUGCAAUUUCUCCAACAGAGGAUUGAGCAUCA
# B9: chr1:201104638:201104639:-_ENSG00000116857_ENST00000367334|hu_mus|motif|central (ssRNA)
# RNA: GGGAGUUCUACAGUCCGACGAUCCAGAGACCUACAGAGACCCAAUCACACUCCCUCGUUAUAACAGUCGAGUACAUUUCGGGAGAGGGAGAAGGAUAAACGCCAUGGGCAUUUGAAGGGAAGACCCAGGGAAGACUGCAGUGACAACAGAGGAUUGAGCAUCA
# B10: chr5:138721144:138721145:-_ENSMUSG00000029510_ENSMUST00000161827|mus_mus|FALSE|FALSE (ssRNA)
# RNA: GGGAGUUCUACAGUCCGACGAUCUAGAACCCCGUUCUCGGCCGCGGGACGUCUCGAAGAAAAGAAUAGGAGCGUGUCCCCUAAAACUGAACAACCCCAGCACCGUAGCAGGACCAGGAGGCAUCUGCGGAGACAAUGGGAGCCCAACAGAGGAUUGAGCAUCA
# B11: chr2:187371472:187371473:+_ENSG00000065548_ENST00000337859|hu_hu|motif|central (ssRNA)
# RNA: GGGAGUUCUACAGUCCGACGAUCACUGGCUACAGUAAUACCUGUUUCAUCUACAUCUCUUGGGAUGUACAGGCUUAAAUCGGUGUCAUUUACACUCACUGAAUCAUCAACCUCAUCACCACCUGUUCCCUGGGUGUAGCGGGUCAACAGAGGAUUGAGCAUCA
# B12: chr16:33500690:33500691:+_ENSMUSG00000022811_ENSMUST00000165418|mus_hu|FALSE|FALSE (ssRNA)
# RNA: GGGAGUUCUACAGUCCGACGAUCAACAAGAAAUGUUUGUCUGCUUUAGUUUGUUUCCUACCAAAGUUUAAGUGAAAAAAGGAAACACGGUUUUUAUUUGCAGAAUAUAGCAAAACAACUGGAAAAUUAUUUCCCUGAAAUAAACAACAGAGGAUUGAGCAUCA
# B13: chr12:104022963:104022964:-_ENSMUSG00000041702_ENSMUST00000045652|mus_mus|FALSE|FALSE (ssRNA)
# RNA: GGGAGUUCUACAGUCCGACGAUCAAAAUACAUCUUAGUGUGCAACCCAAUGCACAUGGAAACUGGUAGAUGAUAGGUAAAAUGCAAAAAGUAUGAAAAUACAGUCCUUUAAAUGUAGCAAUAAAGUAGUUUAACACACUGUUACAACAGAGGAUUGAGCAUCA
# B14: chrX:35777509:35777510:-_ENSMUSG00000016534_ENSMUST00000061755|mus_mus|FALSE|FALSE (ssRNA)
# RNA: GGGAGUUCUACAGUCCGACGAUCCUGUCCUUUUGUCACAUUAAAAGGUUGCACCUUUAGGUUAAAGGUGUUGAUCUGAAACGCUCUAGACACAGAAAGCACCUGCUCUUUGUUGCACAUAUAAGAACUUCCCAGAGGGGCAUCCAACAGAGGAUUGAGCAUCA
# B15: chr15:38777322:38777323:+_ENSG00000171262_ENST00000397609|hu_mus|FALSE|FALSE (ssRNA)
# RNA: GGGAGUUCUACAGUCCGACGAUCUCAACCUAUUUUUCAAAAAGGACAACUGACUAUGCACAUAUAUUAGACACUUCCUCUAUUUUGUAAAAUAGAAUUAACAAUACAGGGCAGAUCCACAGGUAUACAAAUGACAUGAGAGUCCAACAGAGGAUUGAGCAUCA
# B16: chr3:57646030:57646031:-_ENSMUSG00000027805_ENSMUST00000066882|mus_mus|motif|central (ssRNA)
# RNA: GGGAGUUCUACAGUCCGACGAUCUUAAAUCUGUACAUUAUCCACAAUGCCCAAACAAUAGAAGCAAUACUAGAAUGUCCCGGAGGUAGUGCCAUUCGAAAGGAAAUCCAUCUCACAAUAGCAACAGUUCAUUUUAACAAUAGUCAACAGAGGAUUGAGCAUCA
# B17: chr3:8561242:8561243:+_ENSMUSG00000027500_ENSMUST00000029002|mus_mus|motif|central (ssRNA)
# RNA: GGGAGUUCUACAGUCCGACGAUCAGCAACCAGCUCACAGUCUCCAAGUGGAAAAACGUUCAGUAGCAUUAUGUGCUUGUACGGCAGGCAAAAGCUUAAAAUGAACAUCAUCACCCAUGGCACCCACAGAUAAGCCACCCGACACAACAGAGGAUUGAGCAUCA
# B18: chr1:244855233:244855234:+_ENSG00000121644_ENST00000302550|hu_mus|motif|central (ssRNA)
# RNA: GGGAGUUCUACAGUCCGACGAUCCAUCAGAUGGUAGGCGUUGCCCUUAUACUCUUUCCCCAGUUCUUCUACAAUUUUCUCGGUAUCAUCUUCUAGAAAGUCCGUACUUCCUAGAACAACAGCUUCUUUAAAUUUAAAUGUUUCCAACAGAGGAUUGAGCAUCA
# B19: chr9:31209820:31209821:+_ENSMUSG00000042185_ENSMUST00000086167|mus_mus|FALSE|FALSE (ssRNA)
# RNA: GGGAGUUCUACAGUCCGACGAUCAUUUUCCUUACAGAAGGCCUGGUCUUUGGUUUCCAGCCACAGGUGGAAGAGAGCAGCUAAUUCCUUUUCAUUAUCUUGAGAUUGACCAAGCAAUUUCCACUGCUGGGUUUUCUCUUUGAACAACAGAGGAUUGAGCAUCA
# B20: chr1:163117127:163117128:-_ENSG00000143248_ENST00000313961|hu_mus|hu_hu_hu_mus_False|88_98 (ssRNA)
# RNA: GGGAGUUCUACAGUCCGACGAUCUGCUACAAAGGAUGGAGGAAAUAACUCACAGGAACUUUUGGAAGCCUGACCAGAUGACUACUUGAUUAGCUCCUUAUAAAAUUCAGAGCGCACAAAGCGGGGCAGAGAAUCCUUCUCCAUCAACAGAGGAUUGAGCAUCA
# B21: chr13:104551264:104551265:-_ENSMUSG00000032621_ENSMUST00000074616|mus_hu|motif|central (ssRNA)
# RNA: GGGAGUUCUACAGUCCGACGAUCUCCAAGUGUUGCAAUGUUGGGGUCUAGUGCUGCUGCUGGUAUAGCUCCCAAACUGCGGAGUGAAACACCAAGAGUAGUCAAAGGAUUUGGGGUCGGUAUUGGAAGCAAUCCUGCACCAGGCAACAGAGGAUUGAGCAUCA
# B22: chr2:217002811:217002812:+_ENSG00000079246_ENST00000392132|hu_mus|motif|central (ssRNA)
# RNA: GGGAGUUCUACAGUCCGACGAUCCAGCGAGGAAAACAUGUAUUGCCGCAAGUCUUCCAUGAAAGGCAGCUGCACAUAAACGGAACACUCAUAGGCGUCCUUAAUGUAAGGGAAGGCUACACCAACUUGAGGAUUAGAUCUUUUCAACAGAGGAUUGAGCAUCA
# Target: T1, UNK ZnF1-3
# Test: nsRBNS (natural sequence RNA bind-n-seq); RBNS binding buffer (assumed for nsRBNS): 25 mM Tris pH 7.5, 150 mM KCl, 3 mM MgCl2, 0.01% Triton X-100, 500 ug/ml BSA, 20 U/ml SUPERase-In, 4 C; UNK is unkempt and MSI1 is Musashi-1; names of the RNAs are library labels; protein concentration not given here; high values mean tight binding
row,Binder,binding signal [enrichment R]
1,B1,0.763
2,B2,1.68
3,B3,1.12
4,B4,0.906
5,B5,0.849
6,B6,0.377
7,B7,1.03
8,B8,1.04
9,B9,1.55
10,B10,1.6
11,B11,0.627
12,B12,0.917
13,B13,0.706
14,B14,1.25
15,B15,0.788
16,B16,1.15
17,B17,1.46
18,B18,1.2
19,B19,0.67
20,B20,2.05
21,B21,1.29
22,B22,0.976
